# PubChem BioAssay AID904 (National Center for Advancing Translational Sciences (NCATS), 2007)
# Several values for one entry are separate records, joined by “and”; a condition that tells them apart may be missing. Equal entries are not always repeated. Among all 55,000 compounds or so, about 530 (0.96%) were called active. Inconclusive means that the source gave no clear call. Such entries were picked first, then a sample of the others. Calls follow the shape of the dose curve; as a rule, active = well fitted cell-killing curve with a large enough effect; inconclusive = small, poorly fitted or top-dose-only effect; inactive = no such curve, though single readings can be large or run the other way. Where the call is inconclusive, the potency comes from a doubtful curve fit.
# Experiment: qHTS Screen for Compounds that Selectively Target Cancer Cells with p53 Mutations: Cytotoxicity of p53 Null Cells at the Nonpermissive Temperature; also: nearly all actives have a fitted effect of over 50% in size;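 as to activity, negative = cell killing: 0% = DMSO only and -100% = full killing by 100 µM tamoxifen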
# Settings: H1299 p53-null (neo) cells, 39C, ATPlite viability, 24 h; activity, negative = cell killing: at 46.1 µM (top of the series)
# Summary of the method: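 H1299 lung cancer cells, p53-null (H1299-neo) or expressing p53 A138V (H1299-p53A138V), were plated overnight at 37C, then exposed to compounds at up to 46 uM for 24 hr at 39C. Viability was read by ATP-based luminescence.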
# Potency is read from the fitted curve at half-maximal effect; tags tell the direction and shape of the fitted curve.
SMILES,Potency,"activity, negative = cell killing"
COc1ccc(-n2nnc(-c3nsc(NC(=O)c4cccs4)n3)c2C)cc1OC,"inconclusive: 25.1 µM [cytotoxic, single point]",
COc1ccc(CC(=O)N2CC(=O)Nc3ccc(Br)cc3C2c2ccc(F)cc2)cc1 (configuration not stated),"inconclusive: 20 µM [cytotoxic, partial curve]",
CCOc1ccccc1NC(=O)c1sc2nc(-c3ccc(OC)cc3)ccc2c1N,"inconclusive: 7.94 µM [cytotoxic, partial curve]",
O=c1cc(-c2ccccc2)nc2cc(-c3ccc(F)cc3)[nH]n12,"inconclusive: 20 µM [cytotoxic, single point]",
COc1ccc(S(=O)(=O)Nc2cccc(-c3ccc(N4CCCCCC4)nn3)c2)cc1,"inconclusive: 4.47 µM [cytotoxic, full curve, poor fit]",
COc1ccc(-c2[nH]c3c(c2-c2c(-n4cccc4)n(C)c(=O)n(C)c2=O)c(=O)n(C)c(=O)n3C)cc1,"inconclusive: 0.0631 µM [cytotoxic, full curve, poor fit]",
COc1ccccc1N1CCN(c2ncnc3c2nc2n3CCCC2)CC1,,inactive: -0.912%
Cc1cccc(OCC(=O)Nc2ccc(-c3nc4cc(C)ccc4o3)c(O)c2)c1,"inconclusive: 15.8 µM [cytotoxic, single point]",
CN(C)c1ccc(C(=O)c2ccc(O)cc2O)cc1,"inconclusive: 15.8 µM [cytotoxic, partial curve]",
CCc1nnc2c(NCCc3ccc(OC)c(OC)c3)nc3ccccc3n12,"inconclusive: 31.6 µM [cytotoxic, single point]",
N#C/C(=C\c1ccc(-c2ccc(F)cc2F)o1)c1nc2ccccc2[nH]1,"inconclusive: 10 µM [cytotoxic, single point]",
CCOc1cccc(CNc2ccc(O)cc2)c1OCc1ccccc1Cl,"inactive and inconclusive: 35.5 µM [cytotoxic, single point]",
O=C(NCCc1csc(-c2cccc(F)c2)n1)c1ccc(Br)o1,,inactive: -11.8%
O=C(CCS(=O)(=O)c1cc2c(cc1Cl)NC(=O)CO2)NCCc1ccc(Cl)cc1,"inconclusive: 35.5 µM [cytotoxic, single point]",
CCOc1ccc(/C=C/c2nc(C#N)c(NC(C)CC)o2)cc1 (configuration not stated),"inconclusive: 0.794 µM [cytotoxic, single point]",
Cc1cccc(NC(=O)c2sc3nc4c(cc3c2N)CN(Cc2ccccc2)CC4)c1,,inactive: -17.5%
CCCNS(=O)(=O)c1cc(-c2nnc3c4ccccc4c(C)nn23)ccc1OC,"inconclusive: 0.316 µM [cytotoxic, full curve, poor fit]",
CC(=O)c1cccc(NC(=O)c2sc3nc4c(cc3c2N)CCCC4)c1,"inconclusive: 15.8 µM [cytotoxic, partial curve]",
Cc1ccc(N2C(=O)c3n[nH]c(C)c3C2c2ccc(C(C)C)cc2)cc1 (configuration not stated),"inconclusive: 10 µM [cytotoxic, single point]",
CC(=O)c1ccc(NC(=O)CSc2nccn2Cc2ccco2)cc1,"inconclusive: 3.16 µM [cytotoxic, partial curve]",
COc1ccc(C(=O)N2CCN(C(=O)COc3ccc(Br)cc3)CC2)cc1OC,"inconclusive: 10 µM [cytotoxic, partial curve]",

SMILES,Potency,"activity, negative = cell killing"
CCOC(=O)c1ccc(NC(=O)c2cnc(N3CCCC3)nc2C)cc1,,inactive: 7.27%
CCOC(=O)c1[nH]c2c(c1Cc1ccccc1)C(=O)CC(c1ccc(OC)cc1)C2 (configuration not stated),,inactive: 31.5%
COc1ccc(NC(=O)/C(C#N)=C/c2ccc(C)o2)cc1,"inconclusive: 10 µM [cytotoxic, partial curve, poor fit]",
Cc1cc(-c2ccc(C)c(S(=O)(=O)N(Cc3cccs3)C(C)C)c2)on1,"inconclusive: 12.6 µM [cytotoxic, single point]",
CN(C)CCNC(=O)c1ccc2nc(CCc3ccccc3)oc2c1,"inconclusive: 0.447 µM [cytotoxic, full curve, poor fit]",
COc1ccc(-n2c(=O)c3sc4ccccc4c3n(CC(=O)N3CCCC3)c2=O)cc1,,inactive: -4.48%
CC(C)OCCCN1C(=O)c2[nH]nc(-c3ccccc3O)c2C1c1cccc(OCc2ccccc2)c1 (configuration not stated),"inconclusive: 17.8 µM [cytotoxic, single point]",
CCOC(=O)C1CCCN(C(=O)c2ccc(NC(=O)c3nsc4ccccc34)cc2)C1 (configuration not stated),"inconclusive: 10 µM [cytotoxic, partial curve, poor fit]",
COc1ccc(OC)c(Nc2c3c(nc4ccccc24)CCC3)c1,"inconclusive: 7.94 µM [cytotoxic, partial curve]",
CCS(=O)(=O)c1ncc(Cl)c(C(=O)N(Cc2ccccc2)c2ccc(OC)cc2)n1,"inconclusive: 10 µM [cytotoxic, partial curve]",
O=C(Cc1ccc(Cl)cc1)Nc1ccc2nn(-c3ccccc3)nc2c1,,inactive: -3.11%
COc1cccc(-c2n[nH]c3c2C(c2ccccn2)N(C)C3=O)c1 (configuration not stated),,inactive: -14.1%
CCC(=O)Nc1cc2nn(-c3ccc(C)cc3)nc2cc1C,"inconclusive: 1.58 µM [cytotoxic, full curve]",
CCOc1ccccc1NC(=O)c1ccc2c(Cl)c3c(nc2c1)CCC3,"inconclusive: 2.82 µM [cytotoxic, full curve, poor fit]",
Cc1nnc(N2CCC(C(=O)N3CCCCC3)CC2)c2nn(-c3ccc(Cl)cc3)c(C)c12,,inactive: -4.54%
Cc1ccc(C(=O)Nc2ccc(S(=O)(=O)N3CCC(c4nc5ccccc5s4)CC3)cc2)cc1,,inactive: -8.84%
CCc1ccc(NC(=O)CN(c2ccc(C)cc2)S(=O)(=O)c2cccs2)cc1,,inactive: -0.63%
OC(CN=c1sc2ccccc2n1CC(O)COc1ccccc1)COc1ccccc1 (configuration not stated),"inconclusive: 22.4 µM [cytotoxic, single point]",
Cc1cc(C)c(OCC(=O)N(Cc2ccco2)Cc2ccco2)c(C)c1,,inactive: -10.5%
CCOc1ccc(NC(=O)Cn2c(=O)n(-c3ccccc3)c(=O)c3ccc(C(=O)NCc4ccc5c(c4)OCO5)cc32)cc1,active: 15.8 µM,
CN(C)S(=O)(=O)n1cc(/C=C(\NC(=O)c2ccccc2Cl)C(=O)NCCCn2ccnc2)c2ccccc21,"inconclusive: 1 µM [cytotoxic, full curve, poor fit]",
